Reference: PubChem BioAssay AID1347165 (National Center for Advancing Translational Sciences (NCATS), 2019)
The whole screen tested about 220,000 compounds, of which about 5,700 (2.6%) were called active. Inconclusive means that the source gave no clear call. Such entries were picked first, then a sample of the others. Calls come from the whole dose curve; as a rule, active = well fitted inhibition curve with a large enough effect; inconclusive = small, poorly fitted or top-dose-only effect; inactive = no such curve, though single readings can be large or run the other way. Potencies beside an inconclusive call are fits to weak or partial responses and may not hold up.

target: Lysine-specific demethylase 5B (Homo sapiens) (UniProt Q9UGL1); assay: Primary screen for KDM5B Histone Demethylases FDH-coupled qHTS; conditions: FDH-coupled NADH fluorescence (FDH is formaldehyde dehydrogenase); series mostly up to 57.7 µM; note: nearly all actives have a fitted effect of over 70% in size
In short: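 Here, H3K4me3 peptide (12.5 µM in substrate mix) is demethylated by KDM5BΔAP, 200 nM final, after 10 min compound exposure. Formaldehyde product is coupled through FDH (0.25 U/mL in mix) to NADH fluorescence; 30-min ΔRFU feeds dose-response curves.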
Potency is the fitted concentration of half-maximal effect; tags give direction and shape of the fitted curve.

UniProt Q9UGL1, sequence (Q9UGL1 whole entry, looked up): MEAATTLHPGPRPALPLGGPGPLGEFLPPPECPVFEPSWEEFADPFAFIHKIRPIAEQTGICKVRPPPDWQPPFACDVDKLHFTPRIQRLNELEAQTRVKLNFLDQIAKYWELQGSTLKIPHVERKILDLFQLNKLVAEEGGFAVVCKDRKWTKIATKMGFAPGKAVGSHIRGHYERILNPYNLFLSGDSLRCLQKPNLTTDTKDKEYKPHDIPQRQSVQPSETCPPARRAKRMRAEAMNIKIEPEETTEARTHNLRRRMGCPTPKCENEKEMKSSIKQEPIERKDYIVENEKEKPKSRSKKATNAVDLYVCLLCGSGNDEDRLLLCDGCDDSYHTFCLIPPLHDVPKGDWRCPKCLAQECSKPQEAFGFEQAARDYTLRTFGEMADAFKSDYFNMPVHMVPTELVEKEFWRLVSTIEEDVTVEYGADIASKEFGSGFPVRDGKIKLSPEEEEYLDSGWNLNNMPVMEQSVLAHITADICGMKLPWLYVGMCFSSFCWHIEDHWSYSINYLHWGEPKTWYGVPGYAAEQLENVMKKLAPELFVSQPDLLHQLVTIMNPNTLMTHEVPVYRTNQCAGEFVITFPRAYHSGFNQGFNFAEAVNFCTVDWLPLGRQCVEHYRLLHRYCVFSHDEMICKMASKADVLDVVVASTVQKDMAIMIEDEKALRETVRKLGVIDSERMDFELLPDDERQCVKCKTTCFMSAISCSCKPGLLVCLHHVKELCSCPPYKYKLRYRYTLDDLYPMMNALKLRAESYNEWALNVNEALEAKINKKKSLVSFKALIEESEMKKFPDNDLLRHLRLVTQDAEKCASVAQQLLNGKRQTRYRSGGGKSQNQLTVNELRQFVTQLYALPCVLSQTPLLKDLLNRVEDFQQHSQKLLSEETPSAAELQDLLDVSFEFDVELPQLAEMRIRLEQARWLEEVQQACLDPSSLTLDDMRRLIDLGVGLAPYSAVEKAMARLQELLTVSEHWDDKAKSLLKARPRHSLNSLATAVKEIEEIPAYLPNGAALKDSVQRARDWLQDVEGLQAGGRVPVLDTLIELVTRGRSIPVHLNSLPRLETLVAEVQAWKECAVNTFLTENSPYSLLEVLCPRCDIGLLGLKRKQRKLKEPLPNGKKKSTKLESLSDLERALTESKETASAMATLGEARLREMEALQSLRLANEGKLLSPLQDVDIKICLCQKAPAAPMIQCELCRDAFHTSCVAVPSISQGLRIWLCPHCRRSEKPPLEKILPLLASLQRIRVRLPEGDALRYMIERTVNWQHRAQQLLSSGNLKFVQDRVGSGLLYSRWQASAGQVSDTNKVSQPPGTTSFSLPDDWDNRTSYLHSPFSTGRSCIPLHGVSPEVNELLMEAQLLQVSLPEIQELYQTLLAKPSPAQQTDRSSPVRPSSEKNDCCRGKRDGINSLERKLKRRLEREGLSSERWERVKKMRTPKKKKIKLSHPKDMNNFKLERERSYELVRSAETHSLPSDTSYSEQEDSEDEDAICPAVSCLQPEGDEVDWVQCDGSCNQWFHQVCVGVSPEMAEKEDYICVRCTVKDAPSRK

Compound | Potency
COc1ccccc1-c1ccnc(N[C@H]2CO[C@H]3[C@@H]2OC[C@@H]3NC(=O)c2ccc(C)cc2)n1 | inconclusive: 35.5 µM [inhibitor, single point]
Cn1cccc1-c1nc(-c2nnn3c2COC(c2ccc(Cl)cc2)C3)no1 (configuration not stated) | inactive
CCOc1ccc(-n2c(SCC(=O)NCc3ccccc3)nc3n[nH]c(C)c3c2=N)cc1 | inconclusive: 35.5 µM [inhibitor, partial curve, poor fit]
Cc1ccc(-n2c(C3CCN(C(=O)c4ccc(F)c(F)c4)CC3)n[nH]c2=O)cc1 | inactive
Cc1cccc(N2CCN(C(=O)CCn3ccn4nc5c(c4c3=O)CCCC5)CC2)c1 | inactive
CN(C)CCC(=O)c1ccc(F)cc1 | inconclusive: 12.6 µM [inhibitor, partial curve, poor fit]
COCCCNC(=O)c1cc(C2CC2)nc2onc(C3CCNC3)c12 (configuration not stated) | inconclusive: 89.1 µM [inhibitor, partial curve, poor fit]
Cc1cc(=O)oc2cc(OCC(=O)NCCCn3ccnc3)c(Cl)cc12 | inconclusive: 25.1 µM [inhibitor, partial curve, poor fit]
CCS(=O)(=O)c1ccc2oc(Nc3ccc(OC(F)(F)F)cc3)nc2c1 | inactive
Cc1ccc(-c2[nH]ncc2CN2CCc3nc(N4CCN(C)CC4)[nH]c(=O)c3CC2)cc1 | inactive
O=C(Nc1cccc(Cl)c1)N1CC2CCCN2c2ccccc21 (configuration not stated) | inconclusive: 28.2 µM [inhibitor, partial curve, poor fit]
CC(C)CNC(=O)N1CCCN(Cc2ccncc2)C(c2ccccc2)CC(=O)NCC1 (configuration not stated) | inconclusive: 2.51 µM [inhibitor, partial curve, poor fit]
CN1CC(=O)N(C2CCCNC2)Cc2c1ncnc2N1CCN(Cc2ccccc2)CC1 (configuration not stated) | inconclusive: 56.2 µM [inhibitor, partial curve, poor fit]
COc1ccc(CC(=O)NC(C)c2nnc(SCC(=O)c3ccc(Cl)cc3)n2C)cc1 (configuration not stated) | inactive
Cc1noc2c(NC(C)C)cc(-c3cccc(C(F)(F)F)c3)nc12 | inconclusive: 25.1 µM [inhibitor, partial curve, poor fit]
COc1ccc(Nc2oc(-c3ccc(F)cc3)nc2C#N)cc1 | inconclusive: 25.1 µM [inhibitor, single point]
CCOC(=O)C1=C(C)N=C2SC=C(CC(=O)N3CCOCC3)N2C1c1ccccc1OC (configuration not stated) | inconclusive: 25.1 µM [inhibitor, single point]
COCCn1c(-c2ccccc2Cl)n[nH]c1=S | inactive
CCc1noc(-c2cccn3c(CNC(=O)c4cccc(Cl)c4)nnc23)n1 | active: 31.6 µM
Cc1cn(CC(=O)N[C@H]2CN(C(=O)CC(C)C)C[C@@H]2C2CC2)c(=O)[nH]c1=O | inactive
COC(CNC(=O)Cc1c(C)nc2cc(-c3ccccc3)nn2c1C)OC | inconclusive: 28.2 µM [inhibitor, partial curve, poor fit]
CC1(C(=O)N2CCC(c3ccccc3)CC2)COCc2cnc(Nc3ccccc3)nc21 (configuration not stated) | inconclusive: 44.7 µM [inhibitor, single point]
COc1ccc2c(c1)c(CN1CCOCCNC(=O)CC1)cn2C(C)C | active: 20 µM

Compound | Potency
CC1CCc2nn3ccn(CC(=O)Nc4ccc(C(F)(F)F)cc4)c(=O)c3c2C1 (configuration not stated) | inconclusive: 14.1 µM [inhibitor, partial curve, poor fit]
CC(=O)Nc1ccc(Nc2cc(C)nc3c(-c4ccc(C)cc4)c(C)nn23)cc1 | inconclusive: 28.2 µM [inhibitor, single point]
Cc1ccc(S(=O)(=O)CC(=O)c2ccc(Cl)c(Cl)c2)cc1 | inconclusive: 39.8 µM [inhibitor, single point]
Cc1nc2ncccn2c1C(=O)N1CCNCC(C(=O)O)C1 (configuration not stated) | active: 22.4 µM
CCOC(=O)c1cc2c(=O)n3ccccc3nc2n(CC2CCCO2)c1=NC(=O)c1ccccc1C (configuration not stated) | inconclusive: 28.2 µM [inhibitor, partial curve, poor fit]
O=C1CC2CCN(C(=O)c3ccccc3)CC2CCN1 (configuration not stated) | active: 28.2 µM
COc1ccc(CNC(=O)C2CCCN(S(=O)(=O)c3ccc4c(ccn4C)c3)C2)c(OC)c1 (configuration not stated) | inconclusive: 35.5 µM [inhibitor, single point]
CCN(C)C(=O)C(C)N1CCc2onc(-c3ccc(-c4ccccc4)cc3)c2C1 (configuration not stated) | active: 25.1 µM
Cn1c(COc2cccc(C(F)(F)F)c2Cl)nnc1C1CC(N)C1 (configuration not stated) | inactive
O=C1CCCC2=C1C(c1ccccc1F)n1nc(SCc3ccc(C(=O)O)cc3)nc1N2 (configuration not stated) | inconclusive: 28.2 µM [inhibitor, partial curve, poor fit]
COc1cccc(CN(C)C(=O)c2cc(-c3cccs3)nc3ccccc23)c1 | inconclusive: 35.5 µM [inhibitor, partial curve, poor fit]
COCCC1(C(=O)O)CCCN(CC(=O)NCCc2ccccc2)C1 (configuration not stated) | inactive
O=S(=O)(c1ccc(F)cc1)N(CC(O)Cn1c2ccccc2c2ccccc21)c1ccccc1 (configuration not stated) | inconclusive: 5.62 µM [inhibitor, partial curve, poor fit]
CC(Sc1nnc(-c2c[nH]c3ccccc23)o1)C(=O)NC(=O)NC1CCCCC1 (configuration not stated) | inactive
C=CCNC(=O)c1ccc(-c2nc3ccccc3nc2-c2ccccc2)cc1 | inconclusive: 39.8 µM [inhibitor, single point]
CN(C)C(CNc1oc(-c2ccccc2F)nc1C#N)c1cccs1 (configuration not stated) | inconclusive: 25.1 µM [inhibitor, partial curve, poor fit]
CCOC(=O)c1cc2c(ccc3nc(C)c(C)c32)[nH]c1C | inconclusive: 31.6 µM [inhibitor, single point]
O=C(NCCc1ccccc1)N1CC(Oc2ccccc2-c2nc(-c3ccccc3)no2)C1 | active: 25.1 µM
Cc1cc(C)c(NC(=O)CN2C(=O)c3cccnc3Sc3ccccc32)c(C)c1 | inconclusive: 17.8 µM [inhibitor, single point]
COc1ccc2c(CN3CCC(CO)CC3)cc(=O)oc2c1 | inconclusive: 22.4 µM [inhibitor, partial curve, poor fit]
O=C(CCC(=O)N1CC2CCCN2c2ccccc21)NCc1ccc(F)cc1 (configuration not stated) | inconclusive: 39.8 µM [inhibitor, single point]
CCOC(=O)Cc1nnc(SC(C)C(=O)Nc2cc(Cl)ccc2C)n1C (configuration not stated) | inactive
O=C(Nc1ccccc1F)c1ccc(Cn2nc(N3CCN(c4ccccc4)CC3)ccc2=O)o1 | inconclusive: 15.8 µM [inhibitor, partial curve, poor fit]

Compound | Potency
COc1ccc(C2NC(=O)N(CC(=O)N3CCCCCC3)C3=C2C(=O)OC3)cc1 (configuration not stated) | inactive
Cc1ccc(C)c(C(=O)CSc2cccc3cccnc23)c1 | inactive
COc1ccc(NC(=O)c2nc(S(=O)(=O)Cc3ccccc3)ncc2Cl)cc1 | inconclusive: 22.4 µM [inhibitor, single point]
CC(C)NC(=O)c1cc(Cl)ccc1OCc1ccccc1 | inactive
O=C(c1cccnc1)N1CCC2(C1)C(=NC1CCCC1)NC(=O)N2c1cccnc1 (configuration not stated) | inactive
O=C(CSc1n[nH]c(-c2ccccc2F)n1)Nc1ccc2c(c1)OC1(CCCCC1)O2 | inactive
N#Cc1cccc(NC(=O)N2CCc3c(nc(-c4ccc(F)cc4)[nH]c3=O)C2)c1 | active: 20 µM
O=C(Nc1ccc2nc(SCC(=O)N3CCc4ccccc43)sc2c1)c1ccccc1 | inconclusive: 17.8 µM [inhibitor, partial curve, poor fit]
COc1ccc(C2Cn3nnc(C(=O)NC4CCCCCC4)c3CO2)cc1 (configuration not stated) | inconclusive: 25.1 µM [inhibitor, partial curve]
CCOC(=O)c1c(C)[nH]c(C)c1S(=O)(=O)N1CCCC(C(=O)Nc2cc(C)ccc2C)C1 (configuration not stated) | inactive
O=C(C1CCN(S(=O)(=O)N2CCOCC2)CC1)N1CCCC(c2nc(C3CCOCC3)no2)C1 (configuration not stated) | inconclusive: 25.1 µM [inhibitor, single point]
CCCCNC(=O)CSc1nc2nc(C)c(Cc3c(F)cccc3Cl)c(C)n2n1 | inconclusive: 35.5 µM [inhibitor, single point]
CCc1cc(=O)n(CC(=O)Nc2ccc(C)cc2Cl)c(N2CCOCC2)n1 | inconclusive: 8.91 µM [inhibitor, single point]
CN1CCN(C(=O)C2(N(C)CCc3ccccc3)Cc3ccccc3C2)CC1 | inactive
COc1cccc(N2C(=O)[C@@H]3C[C@@H](NC(=O)C4CCN(c5nccc(C(F)(F)F)n5)CC4)CCN3C2=O)c1 | inconclusive: 39.8 µM [inhibitor, single point]
Cc1ccc(NC(=O)CSc2ncc(-c3ccccc3)[nH]2)cc1 | inconclusive: 15.8 µM [inhibitor, partial curve, poor fit]
CC(C)(C)NC(=O)NC(=O)CSc1nc(-c2ccco2)nc2ccccc12 | inconclusive: 25.1 µM [inhibitor, partial curve, poor fit]
O=C(NCc1ccnc2[nH]ccc12)c1ccccn1 | inactive
O=C(c1ccccc1)N1CCCN(c2cc(-c3ccc(Cl)cc3)[nH]n2)CC1 | inconclusive: 17.8 µM [inhibitor, single point]
CCOc1cc2c(cn1)NCCN(Cc1ccccc1O)C2 | active: 35.5 µM
Cc1ccc(NCCCNc2ncccc2C#N)nc1 | inconclusive: 25.1 µM [inhibitor, partial curve, poor fit]
